Laboratory results published in ChEMBL document CHEMBL4888484, “Replenishing the malaria drug discovery pipeline: Screening and hit evaluation of the MMV Hit Generation Library 1 (HGL1) against asexual blood stage Plasmodium falciparum ,using a nano luciferase reporter read-out” (2022).
About 540 (0.36%) of roughly 150,000 compounds showed an effect of 50% or more. Some of the results follow.

test system: Plasmodium falciparum; experiment: Primary screen in NF54 nanoGlo assay, in single point, at 2uM, 72h; a lower Z score goes with more inhibition; type: functional, Erythrocyte; details: timepoint 72 hour

Row | Compound | % Inhibition [%] | Z score
1 | CC(NC(=O)OC(C)(C)C)C1CN(C(=O)C2=NN(c3ccccc3)C(C(N)=O)C2)CCO1 (stereo not drawn) | 3 | -0.39
2 | CCOc1ccc(S(=O)(=O)Nc2ccc(C(=O)N(CC)CC(=O)NCc3cccs3)cc2)cc1 | -7 | 1.46
3 | Cc1ccc(Oc2ccc(CN(C)C)cc2)nn1 | -10 | 1.9
4 | CN1CCN(S(=O)(=O)c2ccccc2CNCc2cnc(C3CC3)o2)CC1 | -2 | 0.39
5 | CC[C@H](NS(=O)(=O)c1ccco1)c1c(C)noc1C | -8 | 0.99
6 | O=C(CNC(=O)C1CCN(CC(=O)NC2CCCc3ccccc32)C1)NC1CCCc2ccccc21 (stereo not drawn) | 5 | -0.79
7 | COc1nc(C)c(C(=O)NC[C@H]2CCN(CC(C)C)C2)s1 | -9 | 1.45
8 | Cn1c(C(=O)NC[C@H]2CCCN3CCCC[C@@H]23)cc2ccc(Cl)cc21 | -14 | 1.8
9 | CCC1(CNC(=O)CC[C@H](C)N2CCN(C)CC2)CCC1 | -6 | 1.14
10 | COc1cccc(-c2cccc(CN3CCOC[C@@H](O)C3)c2)c1 | -3 | 0.48
11 | COc1cccc(S(=O)(=O)N2CCCC[C@H]2c2nnc(-c3ccncc3)[nH]2)c1 | -17 | 3.24
12 | COCCNC(=O)c1ccc2nc(C(C)C)oc2c1 | -2 | 0.29
13 | Cc1cc(C(=O)N2CC(CN3C(=O)COC3=O)C2)nn1C | -4 | 0.73
14 | Clc1cc(CNC2CC2)ccc1OCc1ccccc1 | -4 | 0.51
15 | N#Cc1ccncc1N1CCC=C(F)C1 | -7 | 0.88
16 | Cc1nc(C)c(CN[C@H]2CCN(C3CCCCC3)C2)o1 | 7 | -1.35
17 | CCOc1ccccc1CN1C[C@@H](n2cnnn2)C[C@H]1C(=O)NCc1ccc(C)cc1 | -9 | 1.23
18 | COC(=O)[C@@H]1CCN(Cc2nccn2C(C)C)c2ccccc21 | -11 | 0.96
19 | Cc1cc(CN2CCN(CCO)CC2)c(C)c(CN2CCC[C@H](C)C2)c1 | 4 | -0.56
20 | CCCc1nc(NCc2cc(CC(C)C)no2)no1 | -4 | 0.47
21 | CCCOCC(=O)N1C[C@H](c2ccc(C)o2)[C@@H](N(C)C)C1 | -17 | 1.73

Row | Compound | % Inhibition [%] | Z score
22 | CN(Cc1cc(C[C@H]2CNCC[C@H]2CC(=O)N2CCc3ccccc3C2)no1)c1ccccc1 | 23 | -2.64
23 | Cc1ccc([C@H]2CN(C3CCOCC3)C[C@@H]2NS(=O)(=O)C2CC2)o1 | 9 | -1.22
24 | Nc1cc(Cl)c(S(=O)(=O)Nc2ccccc2)cc1S(=O)(=O)Nc1ccccc1 | -6 | 0.82
25 | Cc1cccc(Cl)c1S(=O)(=O)N1CCCc2occc2C1 | -12 | 1.54
26 | O=C(Nc1cc(-c2nc3ccccc3s2)c(Cl)cc1Cl)c1cccnc1 | 1 | -0.12
27 | Nc1cc(N2CCC(Oc3ccc4c(c3)CCC4)(C(=O)O)CC2)nc(N)n1 | 3 | -0.33
28 | CN1CC[C@@]2(CCCN(C(=O)c3cccc(-c4ccc(C(N)=O)o4)c3)C2)C1 | -10 | 1.5
29 | CC(C)Cc1nc(-c2ccc(-n3ccnc3)cc2)n(CCCO)n1 | 3 | -0.61
30 | CCc1nnc([C@@H]2CCCN2C(=O)NCc2ccc(F)cc2)[nH]1 | -5 | 0.68
31 | CC1CCC(C)N(C(=O)c2csc(S(=O)(=O)N3CCc4ccccc4C3)c2)C1 (stereo not drawn) | -5 | 0.91
32 | CCOC(CN1CCC(C#N)CC1)OCC | -9 | 1.09
33 | O=C(Cc1cccs1)N1CCCn2cc(-c3ccccc3F)nc21 | -5 | 0.9
34 | CN(CC(=O)O)c1ncc(CN2CCC[C@H](C(C)(C)C)CC2)cn1 | -5 | 0.77
35 | Clc1cccc(-c2n[nH]c3c2CN(Cc2cccc4c2OCO4)CC3)c1 | 11 | -1.6
36 | O=C(NCc1ccc2c(c1)OCO2)[C@@H]1CCN(c2ccc(F)cc2F)C1=O | -11 | 2.09
37 | CC(C)(C)OC(=O)N1CCC(CC(=O)NCc2nccnc2-c2ccoc2)CC1 | 21 | -2.64
38 | Cc1cc(N2C[C@@H](C)[C@](C)(C(=O)O)C2)nc(C2CC2)n1 | -11 | 1
39 | CCOCCc1nnc([C@H]2CCO[C@@H]2c2ccccc2)[nH]1 | 5 | -0.83
40 | Cc1ccc(NC(=O)Cn2cnc3nc4c(cc3c2=O)CCCC4)cc1 | -3 | 0.49
41 | Cc1nc2c(s1)[C@@H](NCCCNC(=O)c1occc1C)CCC2 | 8 | -1.07
42 | CC(C)CCNS(=O)(=O)c1cccc(Br)c1 | -19 | 2.97

Row | Compound | % Inhibition [%] | Z score
43 | Cn1nc(-c2ccc(F)cc2)cc1C(=O)NCC1CCN(C(=O)c2cc3ccccc3o2)CC1 | -5 | 0.57
44 | O=C1NC(=O)c2cc(S(=O)(=O)Nc3cccc4[nH]ncc34)ccc21 | 3 | -0.49
45 | CCN1C[C@]2(CCCN(S(=O)(=O)c3c(C)nn(C)c3Cl)C2)CCC1=O | 0 | 0.01
46 | CCNC(=O)NCCOC(=O)c1cccc(C)c1Cl | 37 | -1.23
47 | O=S1(=O)CC[C@H](c2nnc(C3(c4cccc(Br)c4)CCOCC3)o2)C1 | -2 | 0.33
48 | N#Cc1ncn(CCOCCOc2ccccc2)n1 | -18 | 2.49
49 | CN(C)C(=O)N(CCNC(=O)Cc1cccc(Cl)c1)C1CCOCC1 | -2 | 0.35
50 | O=C(NCCC1=CCCCC1)C(F)(F)C(F)(F)C(=O)NCCC1=CCCCC1 | -5 | 0.69
51 | Cc1ccc(F)c(CC(=O)N2C[C@H](c3cnn(C)c3)C(C)(C)C2)c1 | 7 | -1.04
52 | CC(=O)NCc1csc([C@H]2CCCN(S(=O)(=O)c3ccc(C)c(C)c3)C2)n1 | -10 | 1.19
53 | Cn1nc(C(=O)Nc2cccc(F)c2)c(=O)c2ccccc21 | -7 | 0.86
54 | CN(C(=O)[C@@H]1CCCN1C(=O)c1ccccn1)c1ccccc1F | 3 | -0.49
55 | COC(=O)C1CCN2C(=O)N(c3cc(C)c(Cl)c(C)c3)C(=O)C2C1 (stereo not drawn) | -11 | 1.6
56 | Cc1ccc([C@H](CNC(=O)COc2ccccc2C)N2CCN(C)CC2)o1 | 3 | -0.44
57 | Cc1cc(O)nc(N(C)Cc2ccccc2)n1 | -8 | 1.45
58 | O=C1CN(S(=O)(=O)c2ccc(C(=O)NCCc3c[nH]c4ccccc34)cc2)CCN1 | -8 | 0.82
59 | NC(=O)NCC(=O)N(Cc1cccc(Br)c1)CC1CC1 | -11 | 1.75
60 | CCc1nc(C)ncc1C(=O)N1CCCCCCC1 | 1 | -0.1
61 | Cn1cnc2c(N3CCN(CC4CC4)CC3)nccc21 | 3 | -0.43
62 | Cc1cc(Nc2ccc(F)cc2C)n2nc(-c3ccco3)nc2n1 | 5 | -0.71
63 | O=C(c1cc2c(s1)CCC2)N1CCCc2ccccc21 | 1 | -0.11

Row | Compound | % Inhibition [%] | Z score
64 | CC(C)(C)OC(=O)Oc1cccc(CC#N)c1 | -15 | 2.79
65 | Cc1ccc2c(c1)c(-c1ccccc1)c(-c1ccccc1)n2C[C@@H](O)CNCCCO | 1 | -0.17
66 | CCCN(CC(=O)Nc1cc(N2CCN(C(=O)NC(C)C)CC2)ccc1Cl)C(=O)C1CCC1 | -12 | 1.84
67 | CCO[C@H](c1noc(Cc2csc(C3CC3)n2)n1)C1CCCC1 | -1 | 0.19
68 | Cc1nc2cc(C(=O)N(CCN(C)C)C[C@H]3CCCO3)ccc2s1 | -21 | 1.94
69 | Cc1[nH]ncc1CNC(=O)[C@H]1CCN(c2cnn(Cc3ccccc3)c(=O)c2)C1 | 6 | -0.93
70 | CCCc1nc(C(=O)NC[C@H]2CCCN(C(=O)c3n[nH]c(=O)[nH]3)C2)cs1 | -8 | 1.07
71 | CC(=O)N1CCc2cc(S(=O)(=O)Oc3cc(C)ccc3C)ccc21 | -6 | 1.06
72 | CC(C)C1CN(C(=O)CC2COC(=O)C2)C1C(C)C (stereo not drawn) | -4 | 0.5
73 | O=C1NCC[C@@H]1NS(=O)(=O)CC1CCCC1 | -15 | 1.93
74 | CCOC(=O)N1CCC(NC2CC3CCC2C3)CC1 (stereo not drawn) | 4 | -0.56
75 | CC1(C)[C@H](CNc2ncnc3[nH]ncc23)C1(F)F | -7 | 0.73
76 | C[C@H]1CNCCN1C(=O)c1cc(Oc2ccccc2)ccn1 | -11 | 1.57
77 | CCC[C@H]1CCc2ccccc2N1C(=O)c1ccc(=O)n(C)c1 | 5 | -0.49
78 | COc1cccc(CO[C@@H]2CN(C(=O)CCc3cnccn3)CC(=O)N(CC(C)C)C2)c1 | 0 | 0.01
79 | CC(C)c1cc(CN(C)C(=O)Cn2cnc3ccccc3c2=O)on1 | 13 | -2.27
80 | COc1ccc(CN2CCC[C@H](c3nnc(CN4CCCC4)n3C)C2)cc1 | 0 | -0.05
81 | Cc1cccc([C@@H](NC(=O)N2CCC(CO)CC2)c2cccs2)c1 | -9 | 1.31
82 | O=C(CCN1CCC[C@H](CNC(=O)c2ccc(F)cc2F)C1)Nc1cccnc1 | -10 | 1.24
83 | CCCOc1ccc(CNC2CCC3(CC2)C(=O)Nc2ccccc23)cn1 (stereo not drawn) | 3 | -0.4
84 | C[C@@]1(C(=O)NC2CCCCCC2)Cn2c(ccc2-c2ccccc2)C(=O)N1Cc1ccccc1F | -8 | 0.99
